{"source": "PubChem BioAssay AID463173", "about": "(ICCB-Longwood Screening Facility, Harvard Medical School, 2010)", "note": "Out of some 52,000 compounds screened, about 1,700 (3.3%) were called active. No stated cut-off is given here; in the data, active means survival mostly below about 52% (no sharp cut-off); inactive means mostly above about 56%. This is one part of the list."}
{"test_system": "Wild type", "assay": "growth inhibition of S. aureus wild type versus tarO mutant, primary screen, teichoic acid synthesis inhibitors, RN4220, OD600 (AID 463173)", "conditions": "S. aureus RN4220 wild type/DeltatarO growth, OD600, 18 h, hits give low values, screened at 18.75 µg/mL (by protocol)"}
{"compound": "O=C(O)c1ccc(Cn2cnc3cccnc32)cc1", "survival": "inactive: 55%"}
{"compound": "CC1CCN(CC2CCN(C(=O)NCc3ccc(F)cc3)CC2)CC1", "survival": "inactive: 78%"}
{"compound": "COc1ccccc1C(=O)N(Cc1nc(-c2cccc(C)c2)no1)C(C)C", "survival": "inactive: 56%"}
{"compound": "COc1ccc(S(=O)(=O)c2cnc3cc(OC)c(OC)cc3c2N2CCCC(C)C2)cc1", "note": "(centres undefined)", "survival": "inactive: 84%"}
{"compound": "Cc1ccc(/C=C/c2onc(C)c2S(=O)(=O)N2CCC(C(=O)N3CCN(c4cccc(C)c4)C(C)C3)CC2)cc1", "note": "(centres undefined)", "survival": "inactive: 76%"}
{"compound": "CCOc1ccc(C2C(C(=O)Nc3ccccc3)=C(C)Nc3nc(SCc4cccc(OC)c4)nn32)cc1", "note": "(centres undefined)", "survival": "inactive: 92%"}
{"compound": "O=C(NCc1ccccc1)c1nc(S(=O)(=O)Cc2ccc(F)cc2)ncc1Cl", "survival": "active: -5%"}
{"compound": "O=S(=O)(NCCc1csc2nc(-c3ccccc3)nn12)c1cccs1", "survival": "inactive: 81%"}
{"compound": "CCOc1ccc(-c2cn3c(n2)sc2cc(C(=O)NCCc4ccc(OC)cc4OC)ccc23)cc1", "survival": "inactive: 72%"}
{"compound": "Cc1nn(C(C)C(=O)NC2CCC(C)CC2)c(=O)c2c1sc1ccccc12", "note": "(centres undefined)", "survival": "inactive: 76%"}
{"compound": "CCc1ccc(OCc2nc(-c3ccc(-n4cccc4)cc3)no2)cc1", "survival": "inactive: 104%"}
{"compound": "CCc1nc(-c2cc(S(=O)(=O)N3CCN(c4ccc(OC)cc4)CC3)ccc2OC)no1", "survival": "inactive: 81%"}
{"compound": "CC(C)CCOc1ccc(C2N=C(N)Nc3nc4ccccc4n32)cc1", "note": "(centres undefined)", "survival": "active: -15%"}
{"compound": "O=C(COc1ccccc1Cl)Nc1nnc(S(=O)(=O)N2CCCC2)s1", "survival": "inactive: 74%"}
{"compound": "Cc1ccc(NC(=O)CCc2c(C)nn(-c3ccc(N4CCOCC4)nn3)c2C)c(C)c1", "survival": "inactive: 97%"}
{"compound": "COc1ccc(-n2nc3ccc(NC(=O)c4ccc(C#N)cc4F)cc3n2)cc1Cl", "survival": "inactive: 85%"}
{"compound": "COc1cccc2c1cc1c(=O)n(CC(=O)N3CCN(c4cccc(C(F)(F)F)c4)CC3)nc(C)n12", "survival": "inactive: 88%"}
{"compound": "CCOc1ccccc1NC(=O)C(CC(C)C)NC(=O)C1CCC(C)CC1", "note": "(centres undefined)", "survival": "inactive: 109%"}
{"compound": "CCCCN(CC)C(=O)CSc1nc2n[nH]c(C)c2c(=N)n1-c1cccc(C)c1", "survival": "inactive: 78%"}
{"compound": "CCOc1ccc(NC2SC(=O)N(Cc3ccccc3)C2=O)cc1", "note": "(centres undefined)", "survival": "inactive: 72%"}
{"compound": "COc1cccc2sc(NC(=O)CS(=O)(=O)c3ccc(C)cc3)nc12", "survival": "inactive: 73%"}
{"compound": "O=C(Nc1cccs1)Nc1ccc(F)cc1F", "survival": "inactive: 84%"}
{"compound": "O=C(Nc1cccc(C(F)(F)F)c1)c1cc(-c2ccc(Cl)s2)nc2ccccc12", "survival": "inactive: 100%"}
{"compound": "O=C(O)Cn1c(-c2cccs2)cc2cc(Cl)ccc21", "survival": "inactive: 61%"}
{"compound": "COc1ccc(Cn2c(CO)cnc2SCC(=O)Nc2ccc3c(c2)OCCO3)cc1", "survival": "inactive: 72%"}
{"compound": "COc1cccc(COC(=O)c2ccc(-c3nnn(Cc4cccc(OC)c4)n3)cc2)c1", "survival": "inactive: 87%"}
{"compound": "COc1cccc(NC(=O)NCCCNc2nc3cc(C)cc(C)c3cc2C#N)c1", "survival": "inactive: 101%"}
{"compound": "COc1ccc(S(=O)(=O)NCc2cccs2)cc1C(C)(C)C", "survival": "inactive: 128%"}
{"compound": "Cc1ccc(S(=O)(=O)n2nc(-c3ccc(Cl)cc3)nc2NCc2ccccc2)cc1", "survival": "inactive: 72%"}
{"compound": "Cn1c(-n2cccc2)c(-c2c(-c3ccc(F)cc3)[nH]c3c2c(=O)n(C)c(=O)n3C)c(=O)n(C)c1=O", "survival": "inactive: 83%"}
{"compound": "COCCCNC(=O)Cn1nc(N2CCN(c3ccccc3)CC2)ccc1=O", "survival": "inactive: 119%"}
{"compound": "CCCSc1oc(-c2ccco2)nc1S(=O)(=O)c1ccc(Br)cc1", "survival": "inactive: 53%"}
{"compound": "COCCn1ccc2c(OCC(=O)Nc3c(C)cc(C)cc3C)cccc2c1=O", "survival": "inactive: 45%"}
{"compound": "CC(=O)N1CCc2c(sc3c2c(=O)n(-c2ccc(F)cc2)c(=O)n3Cc2ccc(C#N)cc2)C1", "survival": "inactive: 93%"}
{"compound": "CC1CCc2c(sc3nnn(Cc4cccc(C(=O)OC(C)C)c4)c(=O)c23)C1", "note": "(centres undefined)", "survival": "inactive: 85%"}
{"compound": "O=c1[nH]c2ccc(S(=O)(=O)NC3CCCCC3)cc2[nH]1", "survival": "inactive: 115%"}
{"compound": "CC1=C(c2ccc(C(C)C)cc2)S(=O)(=O)N=C1N1CCC(C(=O)NCc2ccccc2)CC1", "survival": "active: -3%"}
{"compound": "COc1ccc(CC(=O)Nc2cc(-c3cn4cccnc4n3)ccc2C)cc1OC", "survival": "inactive: 85%"}
{"compound": "CCOc1ccccc1CNC(=O)C1CCN(S(=O)(=O)c2c(C)noc2/C=C/c2ccccc2F)CC1", "survival": "inactive: 72%"}
{"compound": "CCn1c(C(=O)NCc2ccccc2OC)cc2sccc21", "survival": "inactive: 82%"}
{"compound": "COc1ccc(-n2ccnc(NCc3cccs3)c2=O)cc1OC", "survival": "inactive: 80%"}
{"compound": "CCOc1ccc(NC(=O)CSC2=Nc3ccccc3C3=NC(CC(=O)NCc4ccc5c(c4)OCO5)C(=O)N23)cc1", "note": "(centres undefined)", "survival": "inactive: 135%"}
{"compound": "Cc1ccc(S(=O)(=O)c2c(Nc3cccc(Cl)c3)sc(C(=O)c3ccc4c(c3)OCO4)c2N)cc1", "survival": "inactive: 97%"}
{"compound": "O=C(NCc1ccccc1Cl)c1ccc(NC(=O)N2CCCCc3ccccc32)cc1", "survival": "inactive: 77%"}
{"compound": "Cc1ccc(C(=O)c2oc3ccccc3c2NC(=O)Cc2coc3c(C)c(C)ccc23)cc1", "survival": "inactive: 85%"}
{"compound": "COc1cc(C)ccc1OCCSc1nnc(-c2ccc(C)cc2)o1", "survival": "inactive: 74%"}
{"compound": "COc1ccc(-c2nc3ccccc3n2Cc2ccc(Cl)cc2)cc1", "survival": "active: 4%"}
{"compound": "O=C(OCc1cc(=O)n2c3c(sc2n1)CCCC3)c1cccc(NC(=O)c2ccccc2F)c1", "survival": "inactive: 82%"}
{"compound": "Cc1cccc(NC(=O)CN(C)S(=O)(=O)c2ccc3c(c2)c(=O)n(C)c(=O)n3C)c1", "survival": "inactive: 76%"}
{"compound": "COc1ccccc1C(=O)Nc1ccc(-c2nc3ccccc3s2)c(C)c1", "survival": "inactive: 82%"}
{"compound": "Cc1cc(Br)ccc1NC(=O)C1(S(=O)(=O)c2ccc(Cl)cc2)CC1", "survival": "inactive: 85%"}
{"compound": "O=C(NCCS(=O)(=O)N1CCN(c2ccccc2)CC1)C1CC(=O)N(c2ccccc2)C1", "note": "(centres undefined)", "survival": "inactive: 71%"}
{"compound": "CC1CCCCN1CC(=O)N1CCCc2c1c(=O)oc1ccc(OCc3ccccc3)cc21", "note": "(centres undefined)", "survival": "inactive: 43%"}
{"compound": "Cc1ccc(S(=O)(=O)NCc2ccc(/C=C(/C#N)C(=O)NC3CCCCC3)o2)cc1", "survival": "inactive: 109%"}
{"compound": "CCc1ccc(-c2nnn(Cc3nn[nH]n3)n2)cc1", "survival": "inactive: 104%"}
{"compound": "Cc1ccc(-c2cc(C(=O)N(Cc3ccccc3)Cc3ccco3)no2)cc1F", "survival": "inactive: 92%"}
{"compound": "COc1ccc(S(=O)(=O)N2c3cc(F)ccc3CCC2C)cc1OC", "note": "(centres undefined)", "survival": "inactive: 110%"}
{"compound": "CCOc1ccc(CCNc2nc3c(-c4ccc(C)cc4)nnn3c3ccccc23)cc1OCC", "survival": "inactive: 81%"}
{"compound": "Cc1ccc(-c2ccc(=O)n(CC(=O)Nc3ccc(F)c(Cl)c3)n2)cc1C", "survival": "inactive: 81%"}
{"compound": "CCOc1ccccc1C(=O)Nc1ccc(S(=O)(=O)N2CCCCC2c2cccnc2)cc1", "note": "(centres undefined)", "survival": "inactive: 127%"}
{"compound": "COc1ccccc1C(=O)Nc1nnc(S(=O)(=O)N2CCCCCC2)s1", "survival": "inactive: 81%"}
{"compound": "COc1ccc(-c2nc(CNS(=O)(=O)c3ccc(C)cc3)cs2)cc1", "survival": "inactive: 88%"}
{"compound": "CCN(c1ccccc1)S(C)(=O)=O", "survival": "inactive: 101%"}
{"compound": "COc1cccc(NC(=O)CSC2=Nc3ccccc3C3=NC(CCC(=O)NCc4ccco4)C(=O)N23)c1", "note": "(centres undefined)", "survival": "inactive: 75%"}
{"compound": "COC(=O)c1c(C)sc(-c2c(-c3cccc(OC)c3)[nH]c3c2c(=O)[nH]c(=O)n3C)c1O", "survival": "inactive: 67%"}
{"compound": "CC(=O)Nc1ccc(S(=O)(=O)NC2(C(F)(F)F)NC(=O)N(c3ccc(Cl)cc3)C2=O)cc1", "note": "(centres undefined)", "survival": "inactive: 75%"}
{"compound": "COc1ccc(C(=O)N2CCc3cc(OC)c(OC)cc3C2COc2ccccc2OC)cc1", "note": "(centres undefined)", "survival": "inactive: 113%"}
{"compound": "CCCCN(CC)C(=O)Nc1ccc2c(c1)N(C)C(=O)c1ccccc1S2", "survival": "inactive: 79%"}
{"compound": "CCCn1c(=O)c2sccc2n2c(CCCC(=O)Nc3ccc(C)c(F)c3)nnc12", "survival": "inactive: 94%"}
{"compound": "COc1ccc(C)c2sc(N(Cc3cccnc3)C(=O)CCc3ccccc3)nc12", "survival": "inactive: 77%"}
{"compound": "COc1ccc(-c2noc(CN3CCN(c4ccccc4OC)CC3)n2)cc1OC", "survival": "inactive: 83%"}
{"compound": "Cn1c(C2CC2)n[nH]c1=S", "survival": "inactive: 98%"}
{"compound": "Cc1ccc(C(=O)COC(=O)c2cc(-c3ccc(Cl)cc3)nc3ccccc23)cc1", "survival": "inactive: 117%"}
{"compound": "O=C(NCCO)Nc1c[nH]c2c(Cl)cccc2c1=O", "survival": "inactive: 111%"}
{"compound": "CCc1cccc2c(C=C(C#N)C#N)cn(CC(=O)NC3CCCC3)c12", "survival": "inactive: 104%"}
{"compound": "CC1CCN(C(=O)CN(c2ccccc2)S(C)(=O)=O)CC1", "survival": "inactive: 115%"}
{"compound": "CCc1nnc(SCC(=O)Nc2cc(Cl)c(OC)cc2OC)c2cc3oc(C)cc3n12", "survival": "inactive: 67%"}
{"compound": "C1=CC2=Nc3cccc[n+]3CN2C=C1", "survival": "inactive: 120%"}
{"compound": "COc1cccc(N2CC(NC(=O)COc3ccc4ccccc4c3)CC2=O)c1", "note": "(centres undefined)", "survival": "inactive: 94%"}
{"compound": "COc1ccc(OC)c(-c2noc(CSc3nnc(Cc4ccccc4)n3-c3cccc(C)c3)n2)c1", "survival": "inactive: 70%"}
{"compound": "Cc1noc2nc(C(=O)O)nc(N3CCCCC3)c12", "survival": "inactive: 73%"}
{"compound": "CC(=O)c1ccc(NC(=O)CCn2nc(C)c(S(=O)(=O)N3CCC(C)CC3)c2C)cc1", "survival": "active: -6%"}
{"compound": "CC1CCC(NC(=O)Cn2ncc3c4ccccc4n(Cc4ccc(Cl)cc4)c3c2=O)CC1", "note": "(centres undefined)", "survival": "inactive: 94%"}
{"compound": "Cc1ccc(-n2c(=O)c3ccc(C(=O)NCc4ccco4)cc3n(Cc3cccc(Cl)c3)c2=O)cc1", "survival": "inactive: 84%"}
{"compound": "CC(C)c1cnc2c(c1SCc1cccc(C(F)(F)F)c1)c(=O)n(C)c(=O)n2C", "survival": "inactive: 85%"}
{"compound": "CS(=O)(=O)N(CC(=O)N1CCCC1)c1cccc(Cl)c1Cl", "survival": "inactive: 97%"}
{"compound": "CC(C)CCNC(=O)CSCc1cnn(-c2ccccc2)c1-n1cccc1", "survival": "inactive: 86%"}
{"compound": "CCc1nc(SCC(=O)Nc2ccc(NC(C)=O)cc2)n[nH]1", "survival": "inactive: 78%"}
{"compound": "Cc1ccc(C(c2nnnn2C2CCCC2)N(C)C2CCCCC2)cc1", "note": "(centres undefined)", "survival": "inactive: 107%"}
